Key:
[1] = biological target: T1, CD20 (human, UniProt P11836 1-297); experiment: saturation binding of radiolabeled fusion protein to Ramos cells (10^7 cells), nonlinear regression
T1 construct: whole, on cells; also called CD20-positive Ramos cell line; Ramos cells
T1 sequence (looked up): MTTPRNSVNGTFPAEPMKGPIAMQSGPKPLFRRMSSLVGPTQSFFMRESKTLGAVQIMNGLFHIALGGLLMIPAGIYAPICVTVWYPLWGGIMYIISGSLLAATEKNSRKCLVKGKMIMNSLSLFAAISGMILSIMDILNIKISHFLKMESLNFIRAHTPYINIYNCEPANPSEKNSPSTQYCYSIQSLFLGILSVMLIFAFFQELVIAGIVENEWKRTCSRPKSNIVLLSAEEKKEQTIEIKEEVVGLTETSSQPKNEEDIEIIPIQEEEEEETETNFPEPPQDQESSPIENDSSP

[2] = biological target: T1, CD20; experiment: competitive flow cytometry on Ramos cells; competitor fluorescein-labeled B9E9; reference B9E9 mAb

B1: B9E9 scFvSA (VH-VL 25-mer) (scFv)
scFv: MAQVQLVQSGAELVKPGASVKMSCKASGYTFTSYNMHWVKQTPGQGLEWIGAIYPGNGDTSYNQKFKGKATLTADKSSSTAYMQLSSLTSEDSAVYYCARAQLRPNYWYFDVWGAGTTVTVSKISGGGGSGGGGSGGGGSGGGGSGGGGSSDIVLSQSPAILSASPGEKVTMTCRASSSVSYMHWYQQKPGSSPKPWIYATSNLASGVPARFSGSGSGTSYSLTISRVEAEDAATYYCQQWISNPPTFGAGTKLELKSSGSGSA[not shown - about 150 residues]
notes: Tetramer of 4 identical subunits; monomer mass 43,401; also called B9E9 scFvSA 25-mer; B9E9 fusion protein
- Ka [1]: 8e+07 M⁻¹
- Kd [1]: 12.4 nM
- percent immunoreactivity ([IC50 scFvSA/IC50 mAb] x 100), molar basis [2]: ~185%
